Source: PubChem BioAssay AID1346428 (National Center for Advancing Translational Sciences (NCATS), 2018)
About 1,200 (2.5%) of roughly 48,000 compounds were called active. Not shown: some 2% with an inconclusive outcome.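 The calls were made as follows: active = activation of at least 60% and not above a set upper limit (about 1 call in 100 departs from these limits); inconclusive = activation of 40% to 60%, or above that upper limit; inactive = activation under 40%.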 The list shows a part of the results.

Target: Probable G-protein coupled receptor 32 (Homo sapiens) (UniProt O75388)
Experiment: qHTS for Agonists of Human Resolvin D1 Receptor DRV1; also: 0% is about no effect
Details: CHO-K1 GPR32 beta-arrestin PathHunter luminescence, 90 min; at 76.9 µM; stronger effect = higher value; zero percent set by DMSO-only wells
How it was run: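 GPR32 activation in stably transfected CHO-K1 cells, detected as beta-arrestin recruitment by enzyme-fragment complementation. Compound exposure: 90 min, 37 °C.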

Sequence of UniProt O75388 (O75388 whole entry, looked up): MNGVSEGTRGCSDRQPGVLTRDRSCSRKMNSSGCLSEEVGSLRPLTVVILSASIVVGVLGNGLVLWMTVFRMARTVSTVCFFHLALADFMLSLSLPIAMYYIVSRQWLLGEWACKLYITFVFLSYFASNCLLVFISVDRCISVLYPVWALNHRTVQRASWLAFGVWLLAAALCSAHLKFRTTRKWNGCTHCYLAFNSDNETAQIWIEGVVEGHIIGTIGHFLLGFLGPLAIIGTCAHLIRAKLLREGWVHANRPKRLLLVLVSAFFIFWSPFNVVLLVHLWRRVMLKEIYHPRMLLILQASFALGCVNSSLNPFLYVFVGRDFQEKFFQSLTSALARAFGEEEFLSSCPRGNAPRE

Row | SMILES | activation
1 | COc1cc(Cl)c(C)cc1NC(=O)CN1c2ccccc2S(=O)(=O)c2ccccc21 | inactive: 6.7%
2 | O=S(=O)(Nc1ccc(-c2ccc(N3CCCC3)nn2)cc1)c1ccc(Br)cc1 | inactive: -4.75%
3 | COc1ccc(C(=O)NCC(c2cccs2)S(=O)(=O)c2ccc(C)cc2)cc1 (configuration not stated) | inactive: 9.71%
4 | Cc1ccc(-c2cc(C(F)(F)F)n3nc(C(=O)Nc4ccc(C#N)cc4)cc3n2)cc1 | inactive: -5.15%
5 | CCOc1ccccc1CNC(=O)CCCN1C(=O)CCn2nc(-c3cccn3C)cc21 | inactive: 18%
6 | CCc1ccc(-n2nc(C)c3c(C)cc(=O)n(CC(=O)Nc4ccc(OC)c(OC)c4)c32)cc1 | inactive: 14.3%
7 | Cc1ccc(CNC(=O)C2CCN(S(=O)(=O)c3ccc4c(c3)oc(=O)n4C)CC2)cc1 | inactive: 14.7%
8 | CCOC(=O)c1c(C)[nH]c(C)c1S(=O)(=O)N1CCCC(C(=O)N2CCN(c3cc(C)ccc3C)CC2)C1 (configuration not stated) | inactive: -11.9%
9 | CCOc1ccc(CNC(=O)Cn2ncc3c(=O)oc4ccc(C)cc4c32)cc1 | inactive: -1.1%
10 | Cc1ccc(C)c(CN2C(=O)c3ccccc3S(=O)(=O)c3ccc(C(=O)N4CCOCC4)cc32)c1 | inactive: -16%
11 | CCC(CC)C(=O)Nc1ccccc1C(=O)OCc1cc(=O)n2nc(C3CCCCC3)sc2n1 | inactive: -20.4%
12 | COc1ccc(Cl)cc1N(C)C(=O)Cn1cnc2sc(C)c(S(=O)(=O)N3CCN(c4ncccn4)CC3)c2c1=O | inactive: -17.6%
13 | COc1ccc(C(=O)N2CCCCC2CCN2CCCCC2)cc1 (configuration not stated) | inactive: -7.35%
14 | COc1ccc(Cl)cc1NC(=O)[C@H]1O[C@@H]2OC(C)(C)O[C@@H]2[C@H]2OC(C)(C)O[C@H]21 | inactive: -14.4%
15 | O=S(=O)(c1cccs1)N1CCN(c2ccc(Cl)cc2)CC1 | inactive: -20.3%
16 | COc1cccc(C2C(C(=O)Nc3cccnc3)=C(C)Nc3nc(SCc4ccccc4)nn32)c1 (configuration not stated) | inactive: -3.88%
17 | Cc1nc2ccc(S(=O)(=O)CCC(=O)Nc3ccccc3C)cc2s1 | inactive: -8.34%
18 | CCOC(=O)c1ccc(NC(=O)C2CCCN(c3ncnc4onc(C)c34)C2)cc1 (configuration not stated) | inactive: -4.56%
19 | Cc1ccc(NC(=O)Cn2c(=O)oc3cc(S(=O)(=O)N4CCCC4)ccc32)cc1F | inactive: 21.5%
20 | COc1ccc(NC(=O)CSC2=Nc3ccccc3C3=NC(CCC(=O)NCc4ccco4)C(=O)N23)cc1 (configuration not stated) | inactive: -16.1%
21 | COc1ccccc1N1CCN(CCCNC(=O)Cn2ncc3c([nH]c4ccccc43)c2=O)CC1 | inactive: -14.4%
22 | O=C(CC1NCCNC1=O)Nc1cccc(F)c1 (configuration not stated) | inactive: -7.95%
23 | Cc1ccc2ncc3c(-c4ccccc4)nn(CC(=O)NC4CCCCC4)c3c2c1 | inactive: 6.17%
24 | CCc1ccc(CN2CCc3nc(Nc4ccc5c(c4)OCCO5)ncc3C2)cc1 | inactive: -21.8%
25 | CCc1ccc(CNc2nc3nc(C)c(Cc4ccccc4)c(=O)n3[nH]2)cc1 | inactive: 3.77%
26 | CCc1ccc(-c2nc(SCC(=O)NCCOC)c(-c3ccc(C)cc3)[nH]2)cc1 | inactive: -28.9%

Row | SMILES | activation
27 | COc1ccccc1CNC(=O)C(=O)NCC(c1ccc2c(c1)OCO2)N1CCOCC1 (configuration not stated) | inactive: 1.66%
28 | CCc1ccc2nc(N3CCN(C(=O)c4ccco4)CC3)sc2c1 | inactive: 8.88%
29 | COc1ccc(CCNc2oc(COc3ccc(Cl)cc3)nc2C#N)cc1OC | inactive: 38.1%
30 | CC(=O)c1cccc(NC(=O)C2=CC(c3ccco3)=NS(=O)(=O)N2C)c1 | inactive: 1.87%
31 | COc1ccc(Nc2nnc(-c3ccc(C)c(S(N)(=O)=O)c3)c3ccccc23)cc1 | inactive: 26.8%
32 | CSc1nn(Cc2cccc(F)c2)c(N(C(C)=O)C(C)=O)c1S(=O)(=O)c1ccccc1 | active: 83.3%
33 | CCc1cccc(C)c1NC(=O)c1cnn(-c2ccc(F)cc2)c1-n1cccc1 | inactive: 0.735%
34 | CCOc1ccc(S(=O)(=O)Nc2ccc(-c3ccc(N4CCCC4)nn3)cc2)cc1 | inactive: 7.19%
35 | Cc1cccc(S(=O)(=O)c2cn(Cc3ccccc3)c3cc(N4CCCC(C)C4)c(F)cc3c2=O)c1 (configuration not stated) | inactive: -12.2%
36 | Cc1cccc2sc(N3CCN(C(=O)c4ccco4)CC3)nc12 | inactive: 8.61%
37 | Cc1cc(NC(=O)C2CCCN(S(=O)(=O)c3cccc4nonc34)C2)ccc1Br (configuration not stated) | inactive: 3.81%
38 | Clc1ccc(CSc2nc(NCCc3ccccc3)c3ccccc3n2)cc1 | inactive: -7.31%
39 | CCC(=O)N1CCc2cc(S(=O)(=O)NC(CC(C)C)C(=O)Nc3ccc(CC)cc3)ccc21 (configuration not stated) | inactive: -7.9%
40 | O=C(CN1N=C(c2ccc(Cl)cc2)CCC1=O)NCc1ccc(F)cc1 | inactive: -20%
41 | O=C1Nc2ccccc2Oc2cc(Oc3ccc(Cl)cc3)ccc21 | inactive: 6.13%
42 | COc1ccc(OC)c(CNCc2c(C(=O)O)n(Cc3ccccc3)c3cc(OC)ccc23)c1 | inactive: 17.8%
43 | COc1ccc(-c2onc(C)c2C)cc1S(=O)(=O)N1CCC(C)CC1 | inactive: -9.01%
44 | CCc1ccc(NC(=O)c2ccc(CN3C(=O)C(C)=C(c4ccc(C)cc4)S3(=O)=O)cc2)cc1 | inactive: -4.51%
45 | Cn1c(=O)c2[nH]c(-c3ccc(S(=O)(=O)O)cc3)nc2n(C)c1=O | inactive: 5.24%
46 | COc1cccc(-c2nc(C(N)=O)c3c(n2)n(-c2ccc4c(c2)OCO4)c(=O)n3C)c1OC | inactive: -10.6%
47 | Cn1c(C(=O)NCc2cccc(F)c2)cc2cc(S(=O)(=O)N3CCCCC3)ccc21 | inactive: -8.12%
48 | CCOc1ccccc1NC(=O)CSc1cc(=O)n(CC)c2ccccc12 | inactive: 13.9%
49 | COc1ccccc1CCNC(=O)c1cccn1-c1nnc(N2CCCCC2)s1 | inactive: 21.9%
50 | O=C(Cn1cc(S(=O)(=O)Cc2ccc(F)cc2)c2ccccc21)NCc1ccccc1 | inactive: -12.4%
51 | CC(=O)c1cc(-c2ccccc2)n(CCC(=O)Nc2cc(C)cc(C)c2)c1C | inactive: -26.5%
52 | CCOc1ccc(-c2cc(C(F)(F)F)c(C#N)c(SCC(=O)Nc3ccccc3)n2)cc1 | inactive: 4.95%
